Results as given in the supplement of paper PMC11417369.
± gives the standard deviation of the averaged measurements. The list shows a part of the results.

The sequences below were run on PfAP2-EXP AP2 domain (GST-tagged) (assay: gcPBM binding intensity (ln(normalized median fluorescence intensity)); higher = stronger DNA binding).
Procedure, shortened: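 Binding intensity values are the highest Masliner-normalised natural-log median intensity among replicate spots of either probe orientation. The binding step lasted 1 h in 1× PBS with 1% milk, 0.2 mg/ml BSA, 0.5% salmon testes DNA and 0.03% Triton X-100, using GST-tagged P. falciparum DNA-binding domains expressed in E. coli on an Agilent 4 × 180k array of primer-extended double-stranded 36-bp intergenic genomic probes plus negative controls. Alexa488 anti-GST antibody and a 488 nm scan detected bound protein.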

Sequence	gcPBM binding intensity (ln)
ATGTGATATAAGTACACACACATATGTATATAGAAT [CACACA_site1823]	8.79 ± 0.36
AATATAGATATAACCACACACATACATCTAATTCTA [CACACA_site1760]	8.56 ± 0.54
TTTTGTTTTGTTTTGTTTTGTTTTGTTTTATTTTAT [GTGCAC_negctrl_site383]	8.56 ± 0.57
AATGTATATATGTAATGTACATATGTAATGTATATA [XGTACX_site6509]	8.62 ± 0.46
TGTTTCTTATTTTTTTCACACACTAAACATTTCAAA [CACACA_site2218]	8.92 ± 0.48
GAAAAGAACAAGAGCATGCACTTAATAAGAATAATA	9.53 ± 0.3
AAAAAAAGATTATACACACACATATATAAACCTACA [CACACA_site710]	8.47 ± 0.31
TTTTTTTTTTTTGAAACATGCATTGTTTTATTCTTA [TGCATGCA_site15]	8.69 ± 0.35
TCTATACCTATTCTTACACACATATGTATATATATA [CACACA_site563]	9.07 ± 0.21
ATATATATATAATCAAGTACACAGTAATAAAAAGAA [XGTACX_site1070]	9.51 ± 0.071
ATTGTGTTCATCAGCACACACAACATCATGCAATAA [CACACA_site6960]	8.47 ± 0.44
AATAATAACTGTAGGTGTACGTAAAAAAAAAATTAT [XGTACX_site3133]	8.95 ± 0.45
TTTTTTTTTTTTTGTTGTACAATACTTAATCATTAT [XGTACX_site3422]	8.64 ± 0.57
CATATGTCTTGAGATCGTACGTTATTTTTTTTATTT [XGTACX_site1381]	8.95 ± 0.52
AAGAATATTAATATAAATAAGTAAATAAATAAATAA [CACACA_negctrl_site417]	8.63 ± 0.4
TGGTAAATTTACCGTTGTACATTCATTTATAACATT [XGTACX_site8910]	8.68 ± 0.42
AAAAATTATATATATATATATATATATATATGTATA [GTGCAC_negctrl_site488]	8.7 ± 0.028
TATAAATTTAAAATGACACACACTAAAATTATTTAA [CACACA_site1239]	8.36 ± 0.42
GTATTATTATTATGCACACAAAAATATTTATACATA [CACACA_site3656]	8.725 ± 0.007
TATATATATATATATATATATATATATATATGTATA [TGCATGCA_negctrl_site17]	9.98 ± 0.38
ATTAAAACAAAATGTACACACATATCATTTAATGAC [CACACA_site6543]	8.48 ± 0.34
CATTATTATTAACATACACACGTGTTAAATACACCC [CACACA_site6118]	8.91 ± 0.6

Sequence	gcPBM binding intensity (ln)
TATGAAAAGATATATACACACATAATAAAGGTATAT [CACACA_site7713]	8.63 ± 0.42
ACATACACATATACATGTACATATATATATATATAT [XGTACX_site5082]	10.2 ± 0.2
CTATTTCAATTTAGTGCACACATTTTAATTTATAAG [CACACA_site2040]	9.4 ± 0.65
TTTTAATCTTAATTATGTACATATAAAATGTGTATA [XGTACX_site7382]	8.26 ± 0.36
ATATATGTATTTAATACACACAAAACTTTCATTCCA [CACACA_site3531]	8.43 ± 0.31
ATATTCATTAACCACACACACAAAAAAAATAAAATT [CACACA_site3801]	8.73 ± 0.48
TTTTTAGAAAGACATGCATGTAATAAAAATAAATAA [TGCATGCA_site685]	9.54 ± 0.53
ATACATATATGCTTCTGTACACATAATTTATAAAAA [XGTACX_site7000]	8.96 ± 0.3
GCTATTAATTTATAAGCACACAATATAAATATATAT [CACACA_site2251]	8.39 ± 0.26
ATTACATGATATATCACACACACATATAGATATATA [CACACA_site7352]	8.65 ± 0.44
AATTTTGTTAAAAGGACACACAATTCAATATATTAA [CACACA_site647]	8.52 ± 0.52
TACACGTTCTACATTTGTACTTAATTTATACATAAG [XGTACX_site1579]	8.91 ± 0.45
TACGTCTTTTTTTTGGTGCATAATTTTTTTGTACAA	9.05 ± 0.099
TATATTAAAATATTCACACACTAACGTAAATCATTG [CACACA_site5520]	8.35 ± 0.42
ATTTATTTAAACAAATCACACACAAATATATATACA [CACACA_site8622]	8.69 ± 0.4
TATGTCGACATTTAAAGTACAAAAAAAAAAAAAAAA [XGTACX_site8985]	8.11 ± 0.51
TAAAAATCCACAAGCACACAAATGTACATATATATA [CACACA_site2462]	8.71 ± 0.24
TATATATGTGTTATATACCCTTTTTTATATATTAAT [XGTACX_negctrl_site313]	8.54 ± 0.53
CATACATAGATATATACACACATACCTATAAATACA [CACACA_site6513]	8.53 ± 0.43
TATAAAAAGCATAACACACACATGTCAATATATATA [CACACA_site1111]	8.8 ± 0.42
ATAGAACAGAAAAGGCGTACAATAATATGTAAACAA [XGTACX_site2828]	9.02 ± 0.38
AAAAAAAAAATATGTACACACATATATAATACATAA [CACACA_site1639]	8.49 ± 0.38
